± gives the standard deviation. The full ranking holds about 6,600 sequences; the median of “pre-steady-state target cleavage rate” is about 0.07, and the highest 2% start at about 0.72. The list shows a part of the results, in another mix than the full data.
Tested on: MIWI (PIWIL1) piRISC loaded with Kctd7 piRNA (30 nt)
Assay: pre-steady-state target cleavage rate (min^-1); MIWI and MILI are mouse PIWI proteins and EfPiwi is from a freshwater sponge; tags in brackets are library labels; higher = faster piRNA-guided slicing of the target
Conditions: guide: Kctd7 piRNA 5'p-UGUUAAUCUCUCAGAGAAGGUGACAGUGAU; auxiliary factor: 500 nM mouse GTSF1
Procedure: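 Cleave-'n-Seq: a library of target RNAs (target site embedded in constant flanks, ACAGCATTCCGCGTTAGTGATATCCG... 5' flank; DNA-blocked outside the site) at 0.1 nM was incubated with 1 nM active mouse MILI or MIWI piRISC (synthetic 5'-monophosphorylated piRNA guide) with or without 500 nM mouse GTSF1 at 33 °C for 1 min to 16 h. Uncleaved targets were sequenced and normalised to non-target controls, and the pooled three trials were fitted to a burst-and-steady-state model to give the pre-steady-state cleavage rate (min^-1; k3 is constrained to at most 1e-4). Sequence is the target site only; target names encode pairing extent (gX:gY) and contiguous / 1-mismatch / 2-mismatch / bulge geometry. Fits with R² ≤ 0 are excluded.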

| Sequence | pre-steady-state target cleavage rate |
| --- | --- |
| UACACUGUCACCUUGACUGAGAGAUUAACA | 0.16 ± 0.028 |
| UUCACUGUCACCUUCUGUGACAGAUUAACA | 0.0405 ± 0.01 |
| UAGUGUGUCACCAUCUCUGAGAGAUUUACA | 0.309 ± 0.047 |
| UAGACUGUCACGUUCUCUGAGAGAUUAAGA | 0.0865 ± 0.016 |
| UUCACUGUCACCUUCUCUCUCAGAUUUUGA | 0.00881 ± 0.0043 |
| UACACUUGUCACCUUCUCUGAGAGAUUAACA | 0.631 ± 0.088 |
| UACACUGUCCCCUUCUCUGAGAGAUUAACA | 0.688 ± 0.036 |
| UAGUGACACACCUUGUCUGAGUGAUUAACA | 0.0146 ± 0.0033 |
| UUGUGUGUCACCUUCUCUGAGAGAUUUUGA | 0.0846 ± 0.018 |
| UAGUGACACACCAUCUCUGAGAGUUUAACA | 0.0697 ± 0.013 |
| UAGUGUGUCACCUACUGUGAGAGAUUAACA | 0.414 ± 0.029 |
| UAGUGACAGACACUUCUCUGAGAGAUUAACA | 0.0364 ± 0.0064 |
| UAGUCUGUCACCUUCUCUGAGAGAUUACA | 0.21 ± 0.035 |
| UAGUGACACACCUUCUCAGAGAGAUAAACA | 0.0317 ± 0.0075 |
| UAGUGACUCACGUUCUCUGAGAGAUUUUGA | < 0.0001 |
| UAGUGACAGUGGAUCUCUCUCAGAUUAACA | < 0.0001 |
| AUCACUGAGACCUUCUCUGAGAGAUUAACA | 0.559 ± 0.021 |
| UAGACUGUCAGCUUCUCUGAGAGAUUAUGA | 0.0141 ± 0.0041 |
| AUCACUGUCACCUUCUCUGAGAGAAUAACA | 0.421 ± 0.078 |
| UAGUGAGUCACCUACACUGAGAGAUUAACA | 0.202 ± 0.018 |
| UAGUGAGUGUCCUUCUCUGAGAGAUUAAGA | 0.0803 ± 0.017 |
| UAGACUGUCACCUACACUGAGAGAUUAACA | 0.307 ± 0.026 |
| UAGACUGACUCCUUCUCUGAGAGAUUAACA | 0.494 ± 0.035 |
| UACACUGUCUCCUUCUCUCAGAGAUUAACA | 0.0717 ± 0.0071 |

| Sequence | pre-steady-state target cleavage rate |
| --- | --- |
| UAGUGACAGUCCUUCUCUGAGAGAUUAACU [g2:g20:cont:t1U] | 0.0396 ± 0.005 |
| AUCACUGUCACCUACUCUGAGUGAUUAACA | 0.0274 ± 0.0048 |
| UAGUGAGCUCACCUUCUCUGAGAGAUUAACA | 0.463 ± 0.049 |
| AUCACUGUCACCUUGACUGAGAGAUUUUGA | 0.839 ± 0.22 |
| UAGUGACAGUCCUUCUCUGAGAGAUUACCA | 0.0154 ± 0.0044 |
| UAGUGAGCCACCUUCUCUGAGAGAUUAACA | 0.566 ± 0.049 |
| AUCACUGUCACCUUCACUGAGUGAUUAACA | 0.0332 ± 0.007 |
| UAGACUGUCACCAUCUCUGAGAGAAUAACA | 0.293 ± 0.058 |
| UAGUGUGUGUGCUUCUCUGAGAGAUUAAGA | 0.0191 ± 0.0053 |
| AUCACUGUCUCGUUCUCUGAGAGAUUAACA | 0.667 ± 0.044 |
| UAGUGACACACCUUCUCAGAGAGAUUAUGA | 0.00744 ± 0.004 |
| UAGUGUGUCACCUUCUCUGUGAGAAUAACA | 0.0482 ± 0.0096 |
| UACACUGUCACCUUCUCUCAGAGAUUUACA | 0.0629 ± 0.012 |
| UAGUCUGUCACCUUCUCAGAGAGAUAUUGA | 0.0117 ± 0.0068 |
| UAGUGUGUCACCUUCUCACAGAGAUUAACA | 0.0281 ± 0.0083 |
| UACACUGUCACCAUGUCUGAGAGAUUAACA | 0.162 ± 0.015 |
| UAGUGACAGACCUGCUCUGAGAGAUUAACA | 0.0582 ± 0.0082 |
| UACACUGUCACCCUCUCUGAGAGAUUAACA | 0.601 ± 0.035 |
| UAGACUGUCACCUACUCUGAGAGUUUAACA | 0.147 ± 0.023 |
| UAGUGACUCACCUUCUCUGAGACAUUUACA | 0.021 ± 0.0055 |
| UAGUGUAUCACCUUCUCUGAGAGAUUAACA | 0.443 ± 0.021 |
| UAGUCUGUCACCUUCUCUGUGAGUUUAACA | 0.114 ± 0.013 |
| UAGUGACACACCUGCUCUGAGAGAUUAACA | 0.317 ± 0.024 |
| UAGACUGUCACCUUCCUGAGAGAUUAACA | 0.0692 ± 0.019 |

| Sequence | pre-steady-state target cleavage rate |
| --- | --- |
| AGCACUGUCACCUUCUCUGAGAGAUUAACA | 0.765 ± 0.044 |
| UAGUCACUCACCUUCUCUGAGAGAUUUUGA | 0.0618 ± 0.014 |
| UACACUGUCACCUUCUCUGAGAGUUAAACA | 0.333 ± 0.063 |
| UAGUGUGUCACCUUCUCUGAGUGAUUAACA | 0.0272 ± 0.007 |
| UACAUUGUCACCUUCUCUGAGAGAUUAACA | 0.576 ± 0.027 |
| UUCACUGUCACCUUCUCUGAGACUUUUUGA | 0.018 ± 0.0073 |
| UACACUCUCACCUUCUCUGAGAGUUUAACA | 0.121 ± 0.017 |
| UAGACUGUCACCAUCUCUGAGAGUUUAACA | 0.138 ± 0.019 |
| UAGACUGUCACCUUCUCAGAGAGAUUAUCA | 0.186 ± 0.025 |
| UAGUCUGUCUCCUUCUCUGAGAGAAUAACA | 0.222 ± 0.04 |
| UAGUGAGUCACCUACUCUGAGAGAUUAAGA | 0.13 ± 0.021 |
| UUCACUGUGACCUUCUCUGAGAGAUUAACA | 0.601 ± 0.035 |
| UAGUGACACUCCUUCUCUGAGAGAUAAACA | 0.0686 ± 0.0096 |
| UUCACUGUCUCCUUCUCUGUGAGAUUAACA | 0.254 ± 0.018 |
| UAGACUGUCACCUUCUCUGAGAGAUAAAGA | 0.0134 ± 0.0048 |
| UAGUCUGUCACCUUCUCAGAGAGAUUUUGA | 0.0587 ± 0.02 |
| UAGACUGUCACCUACUCUGAGAGAUUAUGA | 0.0146 ± 0.0066 |
| UAGUGACAGUCCUUCUGUGAGAGAUUAAGA | 0.00317 ± 0.0026 |
| UUCACUGUGACCUUCUCUGAGAGAUUUUGA | 0.0706 ± 0.013 |
| UAGUGACAGUCCUUCUCUGAGAGAUUAACC [g2:g20:cont:t1C] | 0.043 ± 0.0069 |
| AUCACUGUCACCUUCUCUGAGAGAAAUACA | 0.165 ± 0.04 |
| UAGUGAGUCACCUUCUGUGAGAGAUUUACA | 0.0976 ± 0.013 |
| UAGUGACUGACCUUCUCUGAGAGAAUAACA | 0.0371 ± 0.011 |
